Test results taken from the supplement of paper PMC4604168 (melanoma cell lines).
This is one part of the list. Repeats are few or missing, and single values can be far off.

Legend:
Assay in all cases: cell count relative to DMSO control; melanoma cells; higher = more viable cells
Details in all cases: library dose: low library concentration; 72 h
MZ2-MEL = system: MZ2-MEL
MeWo = system: MeWo
RPMI7951 = system: RPMI7951
RVH-421 = system: RVH-421
SkMel28 = system: SkMel28
SkMel2 = system: SkMel2
SkMel30 = system: SkMel30
SkMel5 = system: SkMel5
UACC257 = system: UACC257
UACC62 = system: UACC62
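Also: cell number obtained by counting DAPI-stained nuclei in high-throughput microscope images with image analysis software, screen run in 1,536-well plates.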

Row | SMILES | cell count (MZ2-MEL) [%] | cell count (MeWo) [%] | cell count (RPMI7951) [%] | cell count (RVH-421) [%] | cell count (SkMel28) [%] | cell count (SkMel2) [%] | cell count (SkMel30) [%] | cell count (SkMel5) [%] | cell count (UACC257) [%] | cell count (UACC62) [%]
1 | OCc1c[nH]c2ccccc12 [Indole-3-carbinol] + CCCCCCCCCCCC1=C(O)C(=O)C=C(O)C1=O [Embelin] (first compound 0.8 µM, partner dose 1.2 µM) | 101 | 103 | 86.3 | 129 | 106 | 106 | 97.7 | 100 | 83.6 | 100
2 | Cn1c(Nc2ccc(C(F)(F)F)cc2)nc2cc(Oc3ccnc(-c4ncc(C(F)(F)F)[nH]4)c3)ccc21 + OCCn1cc(-c2cnc3nnn(Cc4ccc5ncccc5c4)c3n2)cn1 [PF04217903] (first compound 0.08 µM, partner dose 1 µM) | 90.3 | 75.7 | 61.7 | 84.4 | 78.4 | 96 | 42.1 | 83.8 | 64.6 | 67.8
3 | C#Cc1cccc(Nc2ncnc3cc(OCCOC)c(OCCOC)cc23)c1 [erlotinib] + O=C(O)c1ccc(-c2c[nH]c3ncc(-c4ccccc4)cc23)cc1C1CCCC1 [GSK650394] (first compound 0.8 µM, partner dose 0.16 µM) | 86.7 | 85.2 | 107 | 113 | 90.9 | 86.9 | 85.4 | 86 | 74.2 | 93.1
4 | Cn1c(Nc2ccc(C(F)(F)F)cc2)nc2cc(Oc3ccnc(-c4ncc(C(F)(F)F)[nH]4)c3)ccc21 + Cc1cc(N2CCOCC2)cc2[nH]c(-c3c(NC[C@@H](O)c4cccc(Cl)c4)cc[nH]c3=O)nc12 [BMS536924] (first compound 0.08 µM, partner dose 0.2 µM) | 69.5 | 57.1 | 70.1 | 54.2 | 51 | 60.5 | 47 | 55.4 | 40.7 | 55.1
5 | O=C(CCCCCCC(=O)Nc1ccccc1)NO [vorinostat] + COc1cc2c(Oc3ccc4[nH]c(C)cc4c3F)ncnc2cc1OCCCN1CCCC1 [cediranib] (first compound 0.08 µM, partner dose 0.4 µM) | 102 | 90.7 | 92.2 | 99.9 | 89.9 | 96.1 | 102 | 98.8 | 98.2 | 89.1
6 | COCC[n+]1c2c(n(Cc3cnccn3)c1C)C(=O)c1ccccc1C2=O + Cc1cc(N2CCOCC2)cc2[nH]c(-c3c(NC[C@@H](O)c4cccc(Cl)c4)cc[nH]c3=O)nc12 [BMS536924] (first compound 0.0004 µM, partner dose 0.2 µM) | 46 | 82.6 | 88.7 | 92.2 | 84.9 | 66 | 67.9 | 57.6 | 57.7 | 82.5
7 | Nc1cccc2c1CN(C1CCC(=O)NC1=O)C2=O (stereo not given) [lenalidomide] + Cn1cncc1[C@@](N)(c1ccc(Cl)cc1)c1ccc2c(c1)c(-c1cccc(Cl)c1)cc(=O)n2C [tipifarnib] (first compound 1 µM, partner dose 0.01 µM) | 103 | 92.7 | 96.7 | 64 | 88.9 | 69.2 | 96.1 | 98 | 84.2 | 77.2
8 | Clc1ccc(Nc2nnc(Cc3ccncc3)c3ccccc23)cc1 [vatalanib] + CN(C)S(=O)(=O)c1ccc2c(c1)/C(=C/c1cc3c([nH]1)CCCC3)C(=O)N2 [SU6656] (first compound 2 µM, partner dose 0.4 µM) | 103 | 87.2 | 100 | 94.9 | 99.7 | 93.3 | 93.7 | 75.4 | 89.5 | 71.4
9 | C#Cc1cccc(Nc2ncnc3cc(OCCOC)c(OCCOC)cc23)c1 [erlotinib] + Cc1cc(N2CCOCC2)cc2[nH]c(-c3c(NC[C@@H](O)c4cccc(Cl)c4)cc[nH]c3=O)nc12 [BMS536924] (first compound 0.8 µM, partner dose 0.2 µM) | 94.9 | 87.2 | 99.6 | 93.8 | 87.9 | 91.8 | 73.2 | 103 | 90.4 | 90.3
10 | Clc1ccc(Nc2nnc(Cc3ccncc3)c3ccccc23)cc1 [vatalanib] + O=c1cc(-c2cccc3c2Sc2ccccc2S3)oc(N2CCOCC2)c1 [KU55933] (first compound 2 µM, partner dose 1 µM) | 93.6 | 100 | 86.6 | 117 | 88 | 106 | 114 | 97.8 | 87.4 | 91
11 | O=C(CCCCCCC(=O)Nc1ccccc1)NO [vorinostat] + NCC(=O)Nc1ccc(-n2nc(C(F)(F)F)cc2-c2ccc3c(ccc4ccccc43)c2)cc1 [OSU03012] (first compound 0.08 µM, partner dose 1 µM) | 91.3 | 56.5 | 107 | 109 | 89 | 65 | 54.3 | 88.2 | 88.7 | 89.8
12 | Clc1ccc(Nc2nnc(Cc3ccncc3)c3ccccc23)cc1 [vatalanib] + CCc1ccc(CCOc2ccc(CC3SC(=O)NC3=O)cc2)nc1 [pioglitazone] (first compound 2 µM, partner dose 2 µM) | 91.9 | 86.6 | 98.3 | 89.9 | 106 | 95.4 | 99.1 | 86.6 | 93.9 | 109
13 | Clc1ccc(Nc2nnc(Cc3ccncc3)c3ccccc23)cc1 [vatalanib] + Cc1cc(N2CCOCC2)cc2[nH]c(-c3c(NC[C@@H](O)c4cccc(Cl)c4)cc[nH]c3=O)nc12 [BMS536924] (first compound 2 µM, partner dose 0.2 µM) | 104 | 97.4 | 103 | 96.9 | 88.7 | 95.8 | 106 | 89.7 | 82 | 96.1
14 | OCc1c[nH]c2ccccc12 [Indole-3-carbinol] + N#Cc1c(O)c2c(-c3ccc(-c4ccccc4O)cc3)csc2[nH]c1=O [A769662] (first compound 0.8 µM, partner dose 2 µM) | 95.5 | 113 | 119 | 105 | 106 | 118 | 94.4 | 108 | 117 | 95
15 | Nc1cccc2c1CN(C1CCC(=O)NC1=O)C2=O (stereo not given) [lenalidomide] + CO[C@@H]1[C@H](N(C)C(=O)c2ccccc2)C[C@H]2O[C@]1(C)n1c3ccccc3c3c4c(c5c6ccccc6n2c5c31)C(=O)NC4 [Midostaurin] (first compound 1 µM, partner dose 0.08 µM) | 96.4 | 89 | 109 | 85.4 | 95.6 | 84.3 | 108 | 87.9 | 75.4 | 99.9
16 | Clc1ccc(Nc2nnc(Cc3ccncc3)c3ccccc23)cc1 [vatalanib] + Oc1nc(-c2ccc(C(F)(F)F)cc2)nc2c1CSCC2 [XAV939] (first compound 2 µM, partner dose 2 µM) | 94.5 | 86 | 70.6 | 89.9 | 96.1 | 104 | 113 | 81.1 | 76.3 | 84.8
17 | COCC[n+]1c2c(n(Cc3cnccn3)c1C)C(=O)c1ccccc1C2=O + C=CCn1c(=O)c2cnc(Nc3ccc(N4CCN(C)CC4)cc3)nc2n1-c1cccc(C(C)(C)O)n1 [MK1775] (first compound 0.0004 µM, partner dose 0.02 µM) | 37.8 | 94.5 | 78.6 | 110 | 94.2 | 81.6 | 85.3 | 58 | 68.9 | 76.8
18 | OCc1c[nH]c2ccccc12 [Indole-3-carbinol] + CCN(CC)CCCCNc1ncc2cc(-c3cc(OC)cc(OC)c3)c(NC(=O)NC(C)(C)C)nc2n1 [PD173074] (first compound 0.8 µM, partner dose 0.1 µM) | 95.8 | 105 | 106 | 125 | 113 | 98.3 | 93.3 | 97.7 | 85.6 | 97.5
19 | OCc1c[nH]c2ccccc12 [Indole-3-carbinol] + CN(NC(=O)CC(=O)NN(C)C(=S)c1ccccc1)C(=S)c1ccccc1 [STA4783] (first compound 0.8 µM, partner dose 0.006 µM) | 96.3 | 108 | 110 | 99.8 | 94.3 | 97.7 | 70.8 | 111 | 77.3 | 93.4
20 | C#Cc1cccc(Nc2ncnc3cc(OCCOC)c(OCCOC)cc23)c1 [erlotinib] + NC(=O)Nc1cc(-c2cccc(F)c2)sc1C(=O)N[C@H]1CCCNC1 [AZD7762] (first compound 0.8 µM, partner dose 0.02 µM) | 106 | 94.5 | 81 | 131 | 104 | 116 | 73.3 | 120 | 105 | 79.7
21 | O=C(CCCCCCC(=O)Nc1ccccc1)NO [vorinostat] + O=C(O)c1ccc(-c2c[nH]c3ncc(-c4ccccc4)cc23)cc1C1CCCC1 [GSK650394] (first compound 0.08 µM, partner dose 0.16 µM) | 97.8 | 85.3 | 99.6 | 120 | 82.1 | 90.9 | 99.5 | 105 | 96 | 68.7
22 | C#Cc1cccc(Nc2ncnc3cc(OCCOC)c(OCCOC)cc23)c1 [erlotinib] + O=C(CCCCCCC(=O)Nc1ccccc1)NO [vorinostat] (first compound 0.8 µM, partner dose 0.08 µM) | 99.6 | 72.8 | 101 | 89.6 | 73.2 | 94.5 | 94.4 | 87.9 | 79.6 | 78.6
23 | Clc1ccc(Nc2nnc(Cc3ccncc3)c3ccccc23)cc1 [vatalanib] + COc1ccc(COc2ccc(Cc3cnc(N)nc3N)cc2OC)cc1 [GW2580] (first compound 2 µM, partner dose 1 µM) | 96.4 | 79.4 | 82.2 | 102 | 101 | 75.4 | 98.6 | 81.2 | 80.6 | 85.8
